Experimental data: paper PMC6522510 (Nature Communications, 2019)
This is a selection; strong and weak results do not stand in their true shares.

Columns and labels:
ML-2 = system: ML-2; set-up: species or system AML cell lines (8); Primary HTS, single concentration about 10 uM, Cell Titer Glo viability; log10 luminescence, per cent inhibition relative to cycloheximide control; settings: 72 h, relative to cycloheximide control, log10 luminescence; inhibitor
U937 = system: U937; set-up: species or system AML cell lines (8); Primary HTS, single concentration about 10 uM, Cell Titer Glo viability; log10 luminescence, per cent inhibition relative to cycloheximide control; settings: 72 h, relative to cycloheximide control, log10 luminescence; inhibitor
MOLM-13 = system: MOLM-13; set-up: species or system AML cell lines (8); Primary HTS, single concentration about 10 uM, Cell Titer Glo viability; log10 luminescence, per cent inhibition relative to cycloheximide control; settings: 72 h, relative to cycloheximide control, log10 luminescence; inhibitor
CMK [1] = system: CMK; set-up: species or system AML cell lines (8); Primary HTS, single concentration about 10 uM, Cell Titer Glo viability; log10 luminescence, per cent inhibition relative to cycloheximide control; settings: 72 h, relative to cycloheximide control, log10 luminescence; inhibitor
CMS [2] = system: CMS; set-up: species or system AML cell lines (8); Primary HTS, single concentration about 10 uM, Cell Titer Glo viability; log10 luminescence, per cent inhibition relative to cycloheximide control; settings: 72 h, relative to cycloheximide control, log10 luminescence; inhibitor
M07e [3] = system: M07e; set-up: species or system AML cell lines (8); Primary HTS, single concentration about 10 uM, Cell Titer Glo viability; log10 luminescence, per cent inhibition relative to cycloheximide control; settings: 72 h, relative to cycloheximide control, log10 luminescence; inhibitor
CHRF288-11 [4] = system: CHRF288-11; set-up: species or system AML cell lines (8); Primary HTS, single concentration about 10 uM, Cell Titer Glo viability; log10 luminescence, per cent inhibition relative to cycloheximide control; settings: 72 h, relative to cycloheximide control, log10 luminescence; inhibitor
MV4-11 = system: MV4-11; set-up: species or system AML cell lines (8); Primary HTS, single concentration about 10 uM, Cell Titer Glo viability; log10 luminescence, per cent inhibition relative to cycloheximide control; settings: 72 h, relative to cycloheximide control, log10 luminescence; inhibitor
M07e [5] = assay: cells
M07e [6] = assay: Secondary dose-response HTS, Cell Titer Glo; type: cell-based; settings: Homo sapiens, M-07e, secondary high-throughput screen, read-out: average effective concentration, M07e
CMS [7] = type: cell-based; settings: Homo sapiens; 72 h, Cell Titer Glo
CMS [8] = assay: Secondary dose-response HTS, Cell Titer Glo; type: cell-based; settings: Homo sapiens, secondary high-throughput screen, read-out: average effective concentration, CMS
WSU = assay: cells; settings: Homo sapiens, 72 h, read-out: IC50 (WSU)
M-MOK = assay: cells
CMK [9] = assay: cells
CMY = assay: cells
CHRF288-11 [10] = type: cell-based; settings: Homo sapiens; 72 h, Cell Titer Glo

SMILES | ML-2 %inh (ML-2) [%] | U937 %inh (U937) [%] | MOLM-13 %inh (MOLM-13) [%] | CMK %inh (CMK [1]) [%] | CMS %inh (CMS [2]) [%] | M07e %inh (M07e [3]) [%] | CHRF288-11 %inh (CHRF288-11 [4]) [%] | MV4-11 %inh (MV4-11) [%] | IC50 (M07e [5]) [nM] | EC50 (M07e [6]) [nM] | IC50 (CMS [7]) [nM] | EC50 (CMS [8]) [nM] | IC50 (WSU) [nM] | IC50 (M-MOK) [nM] | IC50 (CMK [9]) [nM] | IC50 (CMY) [nM] | IC50 (CHRF288-11 [10]) [nM]
O=C1Nc2ccc(-c3cccnc3)cc2/C1=C/c1ccc[nH]1 [JAK3 INHIBITOR VI] | 14.48 | 52.14 | 96.06 | 84.43 | 49.94 | 37.38 | 69.76 | 82.56 |  |  |  |  |  |  |  |  | 
Clc1ccc(CO/N=C(\Cn2ccnc2)c2ccc(Cl)cc2Cl)c(Cl)c1 [SJ000286195-3, OXICONAZOLE NITRATE] | 6.956 | 10.82 | 34.31 | 42.15 | 10.52 | 9.846 | 48.33 | 37.71 |  |  |  |  |  |  |  |  | 
C[C@@H]1CCN(C(=O)CC#N)C[C@@H]1N(C)c1ncnc2[nH]ccc12 [Tofacitinib, tofacitinib] |  |  |  |  |  |  |  |  | 202 | 3300 | 375 | 420 | 42 | 48 | 201 | 71 | 1200
